# Measurements published in publication PMC6919601, “Identification of Plasmodium dipeptidyl aminopeptidase allosteric inhibitors by high throughput screening” (PLoS ONE, 2019).
# Screen size: about 110,000 compounds; about 230 (0.21%) showed an effect of 50% or more. The list shows a part of the results.
# Target: DPAP1 (Plasmodium falciparum, UniProt Q8IIJ9)
# Test: primary screen, percent inhibition; read by cleavage of a fluorogenic dipeptide substrate; higher = more effect of the substance
# Parameters: species or system P. falciparum D10 trophozoite lysates; single well
# 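Further: 30 min substrate incubation versus DMSO and 10 µM JCP410 controls.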
# DPAP1, sequence (Q8IIJ9 whole entry, looked up): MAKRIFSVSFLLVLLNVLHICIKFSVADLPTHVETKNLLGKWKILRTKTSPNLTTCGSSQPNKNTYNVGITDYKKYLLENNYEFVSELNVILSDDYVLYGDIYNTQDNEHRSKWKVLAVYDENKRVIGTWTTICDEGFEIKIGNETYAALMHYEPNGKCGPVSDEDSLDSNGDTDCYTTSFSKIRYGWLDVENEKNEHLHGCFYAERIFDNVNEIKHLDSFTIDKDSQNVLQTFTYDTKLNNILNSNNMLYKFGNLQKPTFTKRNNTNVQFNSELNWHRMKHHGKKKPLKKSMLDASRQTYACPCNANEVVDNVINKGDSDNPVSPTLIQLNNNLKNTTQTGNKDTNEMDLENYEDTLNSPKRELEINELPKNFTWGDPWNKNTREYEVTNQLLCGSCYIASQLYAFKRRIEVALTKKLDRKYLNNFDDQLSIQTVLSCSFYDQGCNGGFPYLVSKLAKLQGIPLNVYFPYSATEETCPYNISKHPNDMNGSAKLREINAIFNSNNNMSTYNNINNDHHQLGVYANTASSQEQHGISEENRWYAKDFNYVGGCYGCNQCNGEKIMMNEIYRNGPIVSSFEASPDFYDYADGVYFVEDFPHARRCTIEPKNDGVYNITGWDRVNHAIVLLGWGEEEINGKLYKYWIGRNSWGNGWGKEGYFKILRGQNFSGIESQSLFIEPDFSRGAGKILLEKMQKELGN
row,Structure (SMILES),% Inhibition @ 10 uM [%]
1,Cc1onc(-c2c(F)cccc2Cl)c1C(=O)Nc1ccc2c(c1)NC(=O)CS2,-20.7
2,Cc1ccccc1-c1nc(CS(=O)(=O)CC(=O)NCc2ccc(OC(C)C)cc2)c(C)o1,-5.15
3,CN1CCN(C(=O)c2ccc(CS(=O)(=O)c3ccc(Br)cc3)o2)CC1,2.14
4,Cc1ccc(S(=O)(=O)c2cc3c(=O)n4ccccc4nc3n(CC3CCCO3)c2=N)cc1 (stereo not drawn),0.222
5,Cc1ccc(C(=O)CC#N)cc1,-4.74
6,CS(=O)(=O)N1CCc2cc(C(=O)Nc3ccc(Cl)cc3)ccc21,1.8
7,Cc1noc(NS(=O)(=O)c2ccc(NC(=O)C(C)C)cc2)c1C,-3.19
8,Cn1cc(NC(=O)NCCN2CCCC2)c2ccccc2c1=O,4.2
9,O=C(Nc1cc(Cl)cc(Cl)c1)c1ccc(Cl)cc1Cl,1.91
10,Oc1cccc2ccc(/C=C/c3ccc(Br)o3)nc12,-2.87
11,N#CC1=C(N)OC2=C(C(=O)CCC2)C1c1ccc(F)cc1 (stereo not drawn),3.16
12,CC(C(=O)N1CCCc2c1c(=O)oc1ccc(OCc3ccccc3)cc21)N1CCCCCC1 (stereo not drawn),-3.51
13,CC(=O)c1sc2nc(-c3ccc(Cl)cc3)cn2c1C,1.47
14,O=C(C1c2ccccc2Oc2ccccc21)N1CCc2ccccc21,0.214
15,Cc1nn(-c2ccccc2)c(C)c1/C=N/n1cnnc1,-8.43
16,CCOc1cc(/C=C2/NC(=O)N(Cc3ccccc3F)C2=O)cc(Cl)c1O,-0.62
17,CN1CCN(C(=O)CCc2ccccc2)CC1,-3.63
18,COc1ccc(OC)c(CN2CCC(O)CC2)c1,-1.38
19,O=C(c1ccccc1Br)N1CCN(c2cccc(Cl)c2)CC1,-3.04
20,CCOc1ccc(C)cc1-n1nc2ccccc2n1,2.57
21,CS(=O)(=O)N(Cc1ccccc1Cl)c1ccc(C(=O)NCc2ccccn2)cc1,-25.2
22,COc1ccc(/C=C/C(=O)c2ccc3ccccc3c2O)cc1,3.72
23,CCCCN1C(=O)C(Cl)=C(Cl)C1NC(=O)c1ccccc1 (stereo not drawn),-9.05
24,Cc1ccc(O)c(C2=NN3C(C2)c2cc(Cl)ccc2OC3c2ccncc2)c1 (stereo not drawn),1.76
25,c1ccc(CCSc2nc3ccccc3[nH]2)cc1,-1.81
26,CCOC(=O)N1CCC(NC(=O)CSCc2nc(-c3sccc3C)oc2C)CC1,-4.71

row,Structure (SMILES),% Inhibition @ 10 uM [%]
1,COc1cc(-c2ccccc2)nc(N)n1,5.09
2,COc1ccc(C2=CC(=O)OC(C)(c3ccccc3)O2)cc1 (stereo not drawn),3.6
3,Nc1c(C(=O)NCCc2ccc(S(N)(=O)=O)cc2)sc2nc3c(cc12)CCCC3,-2.37
4,Cc1ccccc1OCC(=O)Nc1sc2c(c1C(N)=O)CCCC2,-3.37
5,CCCNC(=O)CCn1c(=O)c2cccn2c2cccnc21,-3.61
6,COc1ccc(CN2CCN(Cc3ccccc3Cl)CC2)cc1OC,3.12
7,CCCOc1ccc(C2CC(=O)NC3=C2C(=O)CC(c2ccc(F)cc2)C3)cc1 (stereo not drawn),0.205
8,Cc1onc(-c2ccccc2)c1C(=O)N1CC(C)N(C(=O)c2c(-c3ccccc3)noc2C)CC1C (stereo not drawn),1.28
9,CCN(CC)CCNC(=O)c1ccc2c(c1)sc1nc(-c3ccccc3)cn12,1.92
10,CC(Cc1ccccc1)N1CCC(=O)C2=C1CCC2 (stereo not drawn),4.26
11,COc1ccccc1NC(=O)C1CCC(C)(C(=O)O)C1(C)C (stereo not drawn),5
12,CCOC(=O)c1ccc(NC(=O)C2CCC(C)CC2)cc1 (stereo not drawn),-0.0953
13,CC(C)=CCCC1=CCC2(COC(c3cccnc3)OC2)C(C)C1 (stereo not drawn),-2.47
14,O=C1c2ccccc2C(=O)N1CCCC(=O)N1CCc2ccccc21,3.34
15,Cc1ccc(C2=NC(=O)C(c3c[nH]c4ccccc34)N(C(=O)c3ccccc3)N2)cc1 (stereo not drawn),4.37
16,Cc1nn(CC(=O)NCCCN2CCOCC2)c(=O)c2cc3cc(F)ccc3n12,-1.7
17,O=C(O)CCCN1C(=O)C(O)=C(C(=O)c2ccc(Cl)cc2)C1c1ccccc1F (stereo not drawn),-0.545
18,CCc1c(O)cc2cc(OC)c(OC)cc2c1NCc1ccccc1,3.15
19,CCOc1ccc(/C=c2\sc3nc(-c4cccs4)nn3c2=O)cc1OC,3.54
20,Cc1nc(CCNC(=O)c2ccc(F)c(F)c2)cs1,-0.72
21,Cc1ccc(CCC(=O)Nc2ccccc2)o1,-11.7
22,CCOc1cc(C2c3c(oc4ccc(C)cc4c3=O)C(=O)N2Cc2ccc(F)cc2)ccc1O (stereo not drawn),0.415
23,Cc1ccccc1Cn1c(=O)n(Cc2ccc3c(c2)OCO3)c(=O)c2cccnc21,1.72
24,CCS(=O)(=O)c1nc2ccccc2n1CC(N)=O,2.31
25,Cc1cc2nc(Nc3nc(C)c(C)c(O)n3)nc(C)c2cc1C,-0.173
26,Cc1cc(Cl)ccc1N(CC(=O)Nc1ccc(C(C)C)cc1)S(C)(=O)=O,3.83

row,Structure (SMILES),% Inhibition @ 10 uM [%]
1,CCOC(=O)c1ccc2nc(C(F)(F)F)nc(NCCc3ccc(OC)c(OC)c3)c2c1,2.31
2,c1ccc(C2CCc3ccccc3O2)cc1 (stereo not drawn),1.02
3,Nc1ccc(C(=O)c2cccs2)cc1[N+](=O)[O-],0.0345
4,O=[N+]([O-])c1ccc(-c2cc3ccccn3c2)cc1,-0.128
5,O=C(Nc1cccc([N+](=O)[O-])c1)N(O)c1cccc(Cl)c1,0.989
6,COc1ccccc1C(=O)N/C(=C\c1ccc2c(c1)OCO2)C(=O)NC(CCSC)C(=O)O (stereo not drawn),-1.19
7,COc1ccccc1NC(=O)c1c(NC(=O)CN2CCCCC2)sc2c1CCC2,-2.94
8,COc1ccc(CCNc2ncnc3c2cnn3-c2ccc(C)cc2)cc1OC,-2.31
9,CN1CCN(Cc2ccccc2Br)CC1,1.63
10,COC(=O)C1=C(C)N=c2s/c(=C\c3ccc(OC)cc3)c(=O)n2C1c1ccc(OC)cc1 (stereo not drawn),4.95
11,CCc1ccc(-c2cc(C(=O)NCc3ccc(C)o3)[nH]n2)cc1,-6.02
12,COC(=O)c1ccccc1Oc1c(F)c(F)nc(NCCO)c1F,0.279
13,CCc1ccccc1NC(=O)C1CCCCC1C(=O)O (stereo not drawn),-3.65
14,CC(C)Cn1c(=O)c2ccccc2n2c(-c3ccc(C(F)(F)F)cc3)nnc12,-5.37
15,O=C(O)CCNC(=O)/C(=C/c1ccccc1)NC(=O)c1cccc(Br)c1,0.746
16,Cc1ccc(S(=O)(=O)Nc2nc3ccccc3nc2Nc2ccc(-c3ccc(N)cc3)cc2)cc1,-1.91
17,CCC(C(=O)Nc1sc(C)c(C)c1C#N)c1ccccc1 (stereo not drawn),12.3
18,N#Cc1c(-c2ccc(F)cc2)noc1N,-2.88
19,CC1=C(C(=O)Nc2c(F)cccc2F)C(c2cccnc2)C2=C(O)CCCC2=N1 (stereo not drawn),-1.07
20,CCCCCCOc1ccc(C(=O)NCCCn2ccnc2)cc1,5.44
21,CS(=O)(=O)N(CC(=O)N1CCN(C(c2ccccc2)c2ccccc2)CC1)c1ccccc1F,-8.01
22,CCCS(=O)(=O)NCCc1cc2c(OC)ccc(OC)c2nc1O,-2.87
23,C=CCN1C(=S)NC2(O)c3ccccc3C(=O)C12O (stereo not drawn),-5.51
24,CC(=O)c1cc2c(cc1NC(=O)COc1ccc(C)cc1)OCO2,-2.32
25,CC1(C)CC(=O)C2=C(C1)c1c(ccc3ccccc13)NC2c1cccc(O)c1 (stereo not drawn),4.52
26,CCCC(=O)Nc1ccc(C(=O)Nc2ccc(F)c(Cl)c2)cc1,1.71

row,Structure (SMILES),% Inhibition @ 10 uM [%]
1,Cc1nc2nc(-c3ccco3)nn2c(O)c1Cc1ccccc1,1
2,COc1cccc(OC)c1C(=O)Nc1ccc2c(c1)OCO2,-0.48
3,Cc1ccc(NCC2OCc3ccccc3CO2)cc1,0.673
4,CCc1nc2ccc(C(=O)N3CCN(Cc4ccc5c(c4)OCO5)CC3)cc2nc1CC,8.5
5,NC(=O)CSC12CC3CC(CC(C3)C1)C2,2.94
6,OC1CN(C(c2ccccc2)c2ccccc2)C1,1.8
7,N#CC1(NC(=O)[C@H](Cc2c(F)cccc2F)NC(=O)c2ccc(-c3ccccc3Cl)c(Cl)c2)CCN(C2CC2)CC1,18
8,Cc1cc(N2CCC(C(=O)NCCN(C)C)CC2)n2nc(C)c(-c3ccc(Cl)cc3)c2n1,1.55
9,O=S1(=O)c2ccccc2Nc2cc(C(F)(F)F)ccc21,-4.26
10,COc1cccc(CNCc2ccccc2F)c1OC,-2.14
11,Cc1nc2c(c(C)nn2C(C)(C)C)c(C)c1CCC(=O)N1CCN(C(=O)c2ccco2)CC1,4.14
12,Cc1ccc(NS(=O)(=O)c2cccc(C(=O)Nc3ccccc3)c2)cc1,-0.0369
13,NC1=NNC(c2ccccc2)=CS1,-5.48
14,CN(Cc1ccccc1)C(=O)c1cccc([N+](=O)[O-])c1,0.62
15,CN1CCCN(Cc2ccc(F)c(Br)c2)CC1,3.01
16,COc1cc(CN2CCN(Cc3ccc(OC)cc3OC)CC2)cc(OC)c1,7.02
17,O=C1S/C(=C\c2ccc(O)cc2)C(=O)N1Cc1ccc(F)cc1,0.777
18,CN1CCC(NC2CCCc3ccccc32)CC1 (stereo not drawn),1.88
19,Cc1ccc(S(=O)(=O)Nc2sc3c(c2C(=O)O)CCCC3)cc1,-2.59
20,CCOC(=O)/C=C(\C)N1N=C2c3cc(OC)ccc3CCC2C1c1ccc([N+](=O)[O-])cc1 (stereo not drawn),1.63
21,COc1ccc2cc3c(N)nn(C(=O)/C=C/c4ccc(Br)cc4)c3nc2c1,4.95
22,O=C(CSc1ccccc1)N1CCCCCC1,47.5
23,CC12CCC(C(=O)Nc3ccc(Br)cn3)(C(=O)C1=O)C2(C)C (stereo not drawn),-3.26
24,O=C(CN1C(=O)c2ccccc2S1(=O)=O)Nc1ccccc1Cl,0.643
